Data as given in publication PMC4336329 (PLoS ONE, 2015).
Out of some 310,000 compounds screened, about 14,000 (4.5%) showed an effect of 50% or more. Effects have a minus sign here. Some of the results follow.

biological target: human ether-à-go-go-related gene (hERG) potassium channel (human, UniProt Q12809); assay: primary screen, population patch clamp on CHO cells stably expressing hERG
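Note: peak tail current of the secondary pulse compared with the same well before compound.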

human ether-à-go-go-related gene (hERG) potassium channel, sequence (Q12809 whole entry, looked up): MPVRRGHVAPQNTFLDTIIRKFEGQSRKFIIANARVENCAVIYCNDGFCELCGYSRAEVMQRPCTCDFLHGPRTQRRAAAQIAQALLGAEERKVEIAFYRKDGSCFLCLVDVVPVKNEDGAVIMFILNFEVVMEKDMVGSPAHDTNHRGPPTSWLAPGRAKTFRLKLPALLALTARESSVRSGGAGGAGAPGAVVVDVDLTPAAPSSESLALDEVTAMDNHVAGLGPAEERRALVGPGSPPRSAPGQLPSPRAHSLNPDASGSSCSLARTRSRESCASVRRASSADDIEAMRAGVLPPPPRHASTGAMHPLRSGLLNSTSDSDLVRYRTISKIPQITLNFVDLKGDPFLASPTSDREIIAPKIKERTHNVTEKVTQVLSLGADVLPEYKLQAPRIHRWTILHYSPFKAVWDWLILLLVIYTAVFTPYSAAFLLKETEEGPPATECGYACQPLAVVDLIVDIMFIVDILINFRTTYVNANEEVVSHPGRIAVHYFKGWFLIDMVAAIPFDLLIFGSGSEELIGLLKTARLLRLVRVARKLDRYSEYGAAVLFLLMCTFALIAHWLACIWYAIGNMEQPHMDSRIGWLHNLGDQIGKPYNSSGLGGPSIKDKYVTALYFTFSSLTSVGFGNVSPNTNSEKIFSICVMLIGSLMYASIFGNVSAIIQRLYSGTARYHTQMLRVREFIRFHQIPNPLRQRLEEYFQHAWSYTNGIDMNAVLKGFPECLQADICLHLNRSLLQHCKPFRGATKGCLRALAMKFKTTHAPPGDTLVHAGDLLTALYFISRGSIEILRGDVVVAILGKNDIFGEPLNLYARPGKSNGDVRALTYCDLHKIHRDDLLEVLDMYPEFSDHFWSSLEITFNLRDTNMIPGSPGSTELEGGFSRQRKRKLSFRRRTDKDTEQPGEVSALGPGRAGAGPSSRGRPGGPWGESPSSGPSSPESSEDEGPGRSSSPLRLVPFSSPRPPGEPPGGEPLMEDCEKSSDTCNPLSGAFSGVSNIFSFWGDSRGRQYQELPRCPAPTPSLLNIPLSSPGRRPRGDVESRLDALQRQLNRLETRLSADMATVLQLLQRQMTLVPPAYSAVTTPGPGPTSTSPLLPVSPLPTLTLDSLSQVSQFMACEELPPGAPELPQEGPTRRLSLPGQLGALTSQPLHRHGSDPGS

SMILES	hERG current change (%, negative = inhibition) at 10uM
Cc1cccc(OCC(=O)NNC(=O)c2ccc3nc[nH]c3c2)c1	12%
CC(=O)N1CCN(c2ccc(NC(=O)c3ccc(Br)o3)cc2Cl)CC1	-55.3%
O=C(Nc1cc(Cl)ccc1Cl)C1Cc2ccccc2O/C1=N\O (stereo not shown)	-0.26%
C/C=C/c1ccc(OCCCCOc2c(OC)cccc2OC)c(OC)c1	7.41%
Oc1ccc(C=Nc2cccc3ccccc23)c(O)c1	13.4%
C=CCn1c(SCc2nc3sc4c(c3c(=O)[nH]2)CCCC4)nc2ccccc2c1=O	1.55%
O=C(CN1CCc2ccccc21)Nc1ccc2c(c1)OCO2	11.4%
COc1ccccc1C1SCCN1S(C)(=O)=O (stereo not shown)	-0.718%
O=C(Nc1ccc2nn(-c3ccccc3)nc2c1)c1ccc2c(c1)OCCO2	26.3%
CCn1ncc(/C=N/O)c1C	6.93%
CCc1ccc2[nH]c(=O)c(CN(Cc3ccccc3OC)Cc3nnnn3Cc3ccco3)cc2c1	-14.3%
CS(=O)(=O)c1ccc(C(=O)NCC2(N3CCCCC3)CCCCC2)cc1	-11%
Cc1ccc(-c2cc(C(=O)NN3CCOCC3)c3cc(Br)ccc3n2)o1	16.1%
COc1ccc(/C=C2\SC(=S)N(CCCC(=O)Nc3cc(C)on3)C2=O)cc1OC	0.863%
CCOC(=O)N1CCC(NS(=O)(=O)c2ccc3c(c2)oc(=O)n3C)CC1	1.74%
CC(C)Cn1c(=O)c2ccccc2n2c(CCC(=O)NCc3ccccn3)nnc12	-8.48%
COc1ccc(Cn2nnnc2CN(Cc2cc3cc(C)ccc3[nH]c2=O)C2CCCC2)cc1	4.92%
Cc1ccc(S(=O)(=O)NC(=O)Nc2ccccc2)cc1	7%
O=C(O)CCC(=O)NNC(=O)CCC1CCCCC1	13.1%
CC(C)OP(=O)(c1ccc(N(C)C)cc1)C(O)c1ccc(Br)cc1 (stereo not shown)	2.74%
CCc1nc(Nc2cccc(OC)c2)c2oc3ccccc3c2n1.Cl	10.6%
CCCc1cc(C(=O)OC)c2ccccc2n1	-10.9%

SMILES	hERG current change (%, negative = inhibition) at 10uM
CCCCN(C(=O)c1c(C)noc1C)c1c(N)n(CCC)c(=O)[nH]c1=O	-6.29%
O=C(CSc1nc2ccccc2n1S(=O)(=O)c1ccccc1)N1CCCC1	1.22%
O=C(O)c1cccc(NC(=O)c2cccc(NC(=O)C3CCCO3)c2)c1 (stereo not shown)	-4.17%
O=C(/C=C/Nc1ccccc1O)c1ccco1	5.62%
Cc1ccc(C)c(S(=O)(=O)N2CCCC2CNC(=O)C(=O)NCCc2ccccc2)c1 (stereo not shown)	-40.7%
Cc1cc(C)c2nc(N3CCC(C(=O)NCC4CCCO4)CC3)sc2c1 (stereo not shown)	-9.12%
CN(C(=O)CSc1nnc(N)s1)C1CCCCC1	-1.75%
COc1ccc(OC)c(NC(=O)CCN2CCN(C)CC2)c1.Cl	-0.547%
CCOC(=O)c1ccc(N(CC(=O)NC2CCCCC2)C(=O)CNC(=O)c2ccco2)cc1	-34.1%
Cc1cccc(N2CCN(C(=O)COc3cc(=O)n(C)c4ccccc34)CC2)c1C	-61.2%
Cc1ccc(NC(=O)c2cc(C)nn2-c2ccccc2)cc1	-3.24%
N#Cc1c(Nc2cccc(F)c2)sc2c(O)cc(=O)[nH]c12	27.3%
O=C(c1ccccc1)N1CCC(O)(c2ccc3c(c2)OCO3)CC1	-12.4%
Cc1ccc(-c2nc3ccccc3c(=O)n2-c2cc(C)ccn2)cc1	-5.15%
COc1cccc(NC(=O)CSc2nncn2-c2ccccn2)c1	-17.3%
COc1ccccc1CCNC(=O)CSc1ccc(-c2cccs2)nn1	-28.9%
C=CCn1c(=S)[nH]c2scc(-c3ccc(C)o3)c2c1=O	19.2%
Cc1ccc2c(c1)N(C(=O)CCC(=O)NCc1cccc(Br)c1)CC(C)O2 (stereo not shown)	-48.2%
O=C(C1CC(=O)N(C2CCCCC2)C1)N1CCN(c2cccc(C(F)(F)F)c2)CC1 (stereo not shown)	-29.7%
Cc1ccc(NCCC(=O)c2ccc(Cl)cc2)cc1	-11.5%
CC(=O)Nc1ccc(NC(=O)CCn2c(=O)oc3ccccc32)cc1	17.6%
COc1ccccc1CNC(=O)C1CCCN(S(=O)(=O)c2ccc3c(c2)C(C)(C)C(=O)N3C)C1 (stereo not shown)	-15.9%

SMILES	hERG current change (%, negative = inhibition) at 10uM
O=C(Nc1cccnc1)c1ccc(Oc2ccccc2)cc1	4.9%
CN(C)CCn1c(N)nc2ccccc21	8.35%
CC1(C)Cc2ccccc2C(/C(=N\Nc2cccc(Cl)c2)C(N)=O)=N1	-2.96%
Cc1cc(C(=O)OCC(=O)N2CCN(C(=O)c3ccco3)CC2)c(C)n1-c1ccc(F)cc1	-66.4%
O=C(C1CCN(S(=O)(=O)c2ccc(Cl)c(C(F)(F)F)c2)CC1)N1CCC1	-28.7%
CCN(CC(=O)Nc1ccc(Cl)c(C(F)(F)F)c1)CC(=O)NC1CCS(=O)(=O)C1 (stereo not shown)	-13.2%
COc1ccc2nc(/C=N/NC(=O)CCCCCNC(=O)OC(C)(C)C)ccc2c1	-0.0758%
Cc1nn(CC#N)c(=O)n1-c1ccccc1	8.38%
O=C(NNS(=O)(=O)c1ccc(Cl)cc1)c1cnn(-c2ccccc2)c1-n1cccc1	1.03%
CCOC(=O)C1CCCN(C(=O)CCC(=O)Nc2ccc3nc(N4CCOCC4)cc(C)c3c2)C1 (stereo not shown)	-23.7%
COc1cc(C(=O)NNC(=O)CN2C(=O)NC(C)(c3ccc(C)cc3)C2=O)cc(OC)c1OC (stereo not shown)	0.89%
Cc1cc(NS(=O)(=O)c2ccc(NC(=O)CSc3nnc(-c4ccco4)n3N)cc2)nc(C)n1	11.7%
CCCCCCn1c(O)c(C=Nc2c(C)n(C)n(-c3ccccc3)c2=O)c(=O)[nH]c1=O	-27.2%
O=C(CNc1ccc2ccccc2c1)N/N=C/c1ccncc1	-8.31%
O=C1Nc2ccccc2N(O)N1c1cc(-c2ccc(Cl)cc2)[nH]n1	22.9%
COc1ccc(C(=O)Oc2cc(C)[nH]c(=O)c2[N+](=O)[O-])cc1	-1.51%
Cc1cccc(NC(=O)C2CCN(S(=O)(=O)c3ccc(Cl)cc3)CC2)n1	-2.4%
CCOC(=O)COc1ccc(S(=O)(=O)N2CCN(C(=O)OCC)CC2)cc1	5.11%
COc1ccc(-c2csc(/C(C#N)=C/Nc3ccc4c(c3)OCCO4)n2)cc1	3.31%
CCN(CC(=O)Nc1c(F)cccc1F)C(=O)/C=C/c1cn(Cc2ccccc2)nc1-c1cccnc1	-31.6%
Cc1ccc(CNC(=O)CCNS(=O)(=O)c2ccc3c(c2)c(=O)n(C)c(=O)n3C)cc1	13.2%
CC(C)OC(=O)c1cc(C(=O)c2cc(F)ccc2O)coc1=N	-7.34%

SMILES	hERG current change (%, negative = inhibition) at 10uM
COC(=O)c1c(NC(=O)CCCC(=O)O)sc2c1CCCCC2	12.2%
Cc1nc(N/N=C/c2ccccc2)nc(N(C)c2ccccc2)c1[N+](=O)[O-]	11.4%
O=C(Nc1ccc(F)cc1)N1CCN(c2ccc(F)cc2)CC1	-67.8%
CCOC(=O)c1c(C)[nH]c(C(=O)OCC(=O)Nc2ccccc2)c1C	11.2%
CNc1cnn(-c2ccccc2)c(=O)c1Cl	7.49%
O=C(NCC1CCCO1)C1c2ccccc2C(=O)N1Cc1ccc2c(c1)OCO2 (stereo not shown)	-25.9%
Cc1csc(=NC(=O)c2ccccc2)n1C	-0.315%
CCOc1ccccc1CNC(=O)c1ccc(NC(=O)C2=CSCCO2)cc1	7.72%
Cc1ccc(C(=O)c2cc(C)sc2N)cc1	3.3%
CCc1cccc(C)c1NC(=S)N(CCN(C)C)C(C)c1cccnc1 (stereo not shown)	-3.46%
Cc1cc(NC(=O)CSc2n[nH]c(N)n2)no1	10.9%
COc1cc([N+](=O)[O-])cc(/C=N/NC(=O)c2cncc(Br)c2)c1O	-5.15%
O=C(CN(c1cc(C(F)(F)F)ccc1Cl)S(=O)(=O)c1ccccc1)NCc1cccnc1	4.14%
COc1ccc(C[C@H]2c3cc(O)c(OC)cc3CC[N+]2(C)[O-])cc1O (stereo partly shown)	14.7%
CC1=CC(C)(C)N(C(=O)CSc2nnc(N)s2)c2cc(C)c(C)cc21	-6%
Cc1ccc(S(=O)(=O)N2CCN(C(=O)N3CCOCC3)C2C(C)C)cc1 (stereo not shown)	-7.1%
CCC(=O)Nc1cccc(-c2nc3ccc(C)cc3o2)c1	-13.4%
Cc1ccc(C)c(NC(=O)C(c2ccccc2)N2CCOCC2)c1 (stereo not shown)	-10.6%
Cc1cccc(NC(=O)CCSc2nc(C)cc(C)n2)c1	0.549%
Nc1ccc(N=Nc2ccccc2O)c(N)c1	10.9%
Cc1cccc(CNC(=O)C2CCC(=O)N(C3CCCCCC3)C2)c1 (stereo not shown)	-17.4%
Cc1ccc(NC(=O)CC2SCCNC2=O)cc1[N+](=O)[O-] (stereo not shown)	16.6%
